For 104 molecules, inhibition results are on record in PubChem BioAssay AID2073 (Sanford-Burnham Center for Chemical Genomics, 2009).

As a reminder, the inhibition is the share of the control response that was lost under treatment.

Some of the results follow. The main result of the screen is listed elsewhere. These columns were measured beside it and carry no call.

This assay concerns the target Voltage-dependent N-type calcium channel subunit alpha-1B (Homo sapiens) (UniProt Q00975). Description: disruptors of CaV2.2 binding to Mint1 – biochemical, HTRF (AID 2073). As to conditions: HTRF protein-protein interaction, Mint1-CaV2.2; measured here: average of repeat tests; at 20 µM; stronger effect = higher value. (In general: In TR-FRET formats the signal depends on donor and acceptor labels being close together.)
UniProt Q00975, sequence (Q00975 whole entry, looked up): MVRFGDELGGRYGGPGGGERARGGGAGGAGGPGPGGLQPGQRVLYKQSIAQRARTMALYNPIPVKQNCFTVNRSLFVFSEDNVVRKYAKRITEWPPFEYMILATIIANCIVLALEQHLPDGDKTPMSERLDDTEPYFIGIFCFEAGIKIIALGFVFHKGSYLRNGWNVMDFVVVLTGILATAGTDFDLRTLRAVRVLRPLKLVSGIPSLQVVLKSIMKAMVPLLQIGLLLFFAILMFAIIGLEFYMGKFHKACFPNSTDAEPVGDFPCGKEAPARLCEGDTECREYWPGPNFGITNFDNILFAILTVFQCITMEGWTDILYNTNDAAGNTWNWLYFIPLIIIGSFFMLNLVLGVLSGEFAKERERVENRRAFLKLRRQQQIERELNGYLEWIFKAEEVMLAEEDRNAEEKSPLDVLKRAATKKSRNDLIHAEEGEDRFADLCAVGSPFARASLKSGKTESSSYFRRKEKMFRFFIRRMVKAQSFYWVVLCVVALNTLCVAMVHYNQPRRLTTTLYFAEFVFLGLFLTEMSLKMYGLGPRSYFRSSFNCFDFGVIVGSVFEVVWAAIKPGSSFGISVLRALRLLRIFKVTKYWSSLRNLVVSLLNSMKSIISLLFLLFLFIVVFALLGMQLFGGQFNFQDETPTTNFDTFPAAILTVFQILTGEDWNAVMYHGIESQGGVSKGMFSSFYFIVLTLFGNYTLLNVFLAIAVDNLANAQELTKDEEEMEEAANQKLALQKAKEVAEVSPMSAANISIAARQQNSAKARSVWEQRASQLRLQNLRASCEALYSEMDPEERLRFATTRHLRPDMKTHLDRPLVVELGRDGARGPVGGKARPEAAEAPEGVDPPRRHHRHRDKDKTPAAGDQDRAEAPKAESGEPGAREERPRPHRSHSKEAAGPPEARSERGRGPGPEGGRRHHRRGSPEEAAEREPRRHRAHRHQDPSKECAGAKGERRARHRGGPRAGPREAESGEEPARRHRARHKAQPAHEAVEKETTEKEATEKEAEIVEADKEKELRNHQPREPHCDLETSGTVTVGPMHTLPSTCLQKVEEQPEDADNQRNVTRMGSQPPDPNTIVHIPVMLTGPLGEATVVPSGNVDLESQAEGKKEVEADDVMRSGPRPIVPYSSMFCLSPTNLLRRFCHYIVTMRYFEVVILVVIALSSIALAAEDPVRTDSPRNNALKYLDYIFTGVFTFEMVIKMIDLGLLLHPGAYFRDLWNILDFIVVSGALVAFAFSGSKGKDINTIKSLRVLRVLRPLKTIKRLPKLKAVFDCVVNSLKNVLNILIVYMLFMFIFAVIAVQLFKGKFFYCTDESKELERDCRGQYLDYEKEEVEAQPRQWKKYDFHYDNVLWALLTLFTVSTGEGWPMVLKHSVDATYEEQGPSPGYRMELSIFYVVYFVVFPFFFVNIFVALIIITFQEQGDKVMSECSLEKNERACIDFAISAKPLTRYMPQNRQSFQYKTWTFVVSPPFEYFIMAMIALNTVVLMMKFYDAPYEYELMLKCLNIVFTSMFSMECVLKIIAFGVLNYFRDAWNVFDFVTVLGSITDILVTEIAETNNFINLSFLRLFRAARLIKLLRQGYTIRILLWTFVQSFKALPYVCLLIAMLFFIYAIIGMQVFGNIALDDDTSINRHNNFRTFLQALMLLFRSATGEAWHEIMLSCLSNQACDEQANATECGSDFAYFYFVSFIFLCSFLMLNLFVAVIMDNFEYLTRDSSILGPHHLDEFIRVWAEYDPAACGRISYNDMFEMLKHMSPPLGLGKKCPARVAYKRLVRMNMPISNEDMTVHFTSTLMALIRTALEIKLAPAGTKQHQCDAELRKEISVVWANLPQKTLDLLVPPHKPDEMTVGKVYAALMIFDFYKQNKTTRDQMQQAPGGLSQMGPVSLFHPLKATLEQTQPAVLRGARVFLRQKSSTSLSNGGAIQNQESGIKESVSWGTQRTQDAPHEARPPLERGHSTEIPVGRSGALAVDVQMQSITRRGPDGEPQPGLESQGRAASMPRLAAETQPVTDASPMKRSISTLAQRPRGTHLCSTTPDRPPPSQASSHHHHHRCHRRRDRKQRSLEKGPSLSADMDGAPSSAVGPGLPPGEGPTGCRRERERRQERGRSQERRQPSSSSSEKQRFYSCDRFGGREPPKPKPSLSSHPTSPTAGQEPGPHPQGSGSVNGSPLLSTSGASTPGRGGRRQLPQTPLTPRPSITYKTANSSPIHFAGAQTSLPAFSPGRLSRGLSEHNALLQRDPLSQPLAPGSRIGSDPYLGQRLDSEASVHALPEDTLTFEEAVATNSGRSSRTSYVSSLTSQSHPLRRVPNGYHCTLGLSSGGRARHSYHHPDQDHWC
`COc1ccc(NC(=O)c2cc3c(COC(C)=O)cnc(C)c3oc2=Nc2cccc(C(=O)O)c2)c(OC)c1`: the inhibition was 88.2%. Regarding `C(=C\c1ccco1)/C1=NN(c2ccccc2)C(c2ccco2)C1` (centres undefined), the inhibition was 50.2%. Consider `COc1ccccc1OCCOc1ccc(/C=C2/C(=N)N3OC(C)=CC3=NC2=O)cc1OC`, for which the inhibition stood at 44.1%.

On to `O=C(O)c1c2c(nc3ccccc13)/C(=C/c1ccc(O)cc1)CC2`, for which the inhibition worked out at 56.1%. As to `O=C(Nc1nc2cc3c(cc2s1)OCCO3)c1ccc(N2C(=O)CCC2=O)cc1`, the inhibition was determined as 65.9%. `CCCCCCc1cc2cc(-c3nnc(-c4ccccc4)o3)c(=O)oc2cc1O`: the inhibition is 63.3%.

Take `COc1ccc(OC)c(C2CC(=O)N3CN(c4ccccc4)CSC3=C2C#N)c1` (centres undefined): the inhibition is 43.1%. As to `Cc1cc(C)nc(NC(=S)Nc2cccc(Cl)c2Cl)c1`, the inhibition came out at 76.7%. As for `COc1ccc(Cl)cc1NC(=O)c1nnn(CC(=O)Nc2ccc(OC)c(OC)c2)c1N`, the inhibition stood at 52.9%. Then `Cc1ccc(-c2nc3c(c(=O)[nH]c(=O)n3Cc3ccccc3)n2C)o1`, with 58.4%; and `CCOc1ccc(NC(=O)Cn2sc3nc(C)cc(C)c3c2=O)cc1`, with 85.1%; and `O=C1C=CC(=O)N1CCNc1ncc(C(F)(F)F)cc1Cl`, with 59.6%.

As to `O=C(O)c1ccc(-n2cccc2/C=C2/NC(=O)N(c3cccc(Cl)c3)C2=O)cc1`, the inhibition turned out to be 53.4%. Take `Nc1ncnc2oc(-c3ccco3)c(-c3ccco3)c12`: the inhibition turned out to be 48%. For the molecule `CCN1C(=O)c2cccc3cccc1c23`, the inhibition was found to be 47.5%.

Turning to `O=C(NCc1ccco1)c1ccc(Cl)nc1`, the inhibition was 57.5%.

Consider `Cc1c(N2C(=O)c3ccc4c5c(ccc(c35)C2=O)CC4)c(=O)n(-c2ccccc2)n1C`, for which the inhibition is 41.2%. With `Cc1ccc(C2CC(=O)N3CN(c4ccc(Br)cc4)CSC3=C2C#N)o1` (centres undefined) the figure was 47.8%; with `O=c1[nH]c(/C=C/c2ccccc2Cl)nc2ccccc12`, 45.5%; with `CCc1nc2sc3c(O)cc(=O)[nH]c3c2cc1C`, 35.8%. On to `COc1ccc2[nH]c(=O)c(CN(C3CCCCC3)C(c3nnnn3Cc3ccco3)C(C)C)cc2c1` (centres undefined), for which the inhibition is 48.8%. As to `CNc1nc(-c2ccccc2)[n+](-c2ccc(C)cc2)s1`, the inhibition turned out to be 96.1%. `O=C1Nc2ccccc2C(=O)C1(Cl)Cc1ccccc1` (centres undefined): the inhibition was 76.7%. On to `O=C(N/N=C/c1ccc([N+](=O)[O-])cc1)c1cc(-c2ccc3c(c2)OCO3)n[nH]1`, for which the inhibition was 46.8%. With `COc1cc(/C=C2\SC(=O)N(c3ccc(Cl)cc3)C2=O)cc([N+](=O)[O-])c1O` the figure was 85.5%; with `Cc1nc2ccccn2c1-c1csc(Nc2cccc(O)c2)n1`, 51.3%. Turning to `O=C1C=C(c2ccc(Cl)cc2)C(=O)N1Nc1ccccc1`, the inhibition turned out to be 66.6%.

In the case of `CNC(=S)/N=C(\Nc1ccc(C)cc1)c1ccccc1`, the inhibition stood at 85.3%.

`COc1ccc(/C=C2\SC(=S)N(CCC(=O)Nc3ccc(C(=O)O)cc3)C2=O)cc1OC`: the inhibition turned out to be 86.8%. With `CCOC(=O)N1CCN(C(=O)CCN2C(=O)/C(=C\c3cccc(OC)c3)SC2=S)CC1` the figure was 62.5%.

Turning to `CCOC(=O)c1sc2nc3c(SCCC(=O)O)cc(C(=O)c4cc(OC)ccc4O)cn3c(=O)c2c1C`, the inhibition worked out at 87.4%. Regarding `Cc1cccc(NC(=S)NC2CCCCC2)n1`, the inhibition is 69.5%. For `CCN(CC)CCNC(=O)c1cc(-c2ccco2)nc2ccccc12`, the inhibition amounted to 51.4%. For `COc1ccc(N2CSC3=C(C#N)C(c4cc(OC)c(OC)cc4OC)CC(=O)N3C2)c(OC)c1` (centres undefined), the inhibition amounted to 47.9%. In the case of `CCOC(=O)c1ccc(N=Nc2c(C)c(C#N)c(O)[nH]c2=O)cc1`, the inhibition was determined as 56.7%. Take `Cc1cc(C(=O)N/N=C/c2cc(N=Nc3ccccc3)ccc2O)n[nH]1`: the inhibition was found to be 56.6%. With `O=C(COC(=O)c1c2c(nc3ccccc13)/C(=C/c1ccco1)CC2)NC1CCCC1` the figure was 68.9%; with `Cc1c(C)c2c(OCC(=O)Nc3cccnc3)cc3c(c2oc1=O)CCC(C)(C)O3`, 60.3%; with `Cc1cccn2c(=O)c(/C=N/O)c(Nc3ccccc3F)nc12`, 50.3%.

`CCOC(=O)c1cc(-c2ccc(F)cc2)nc2c1c(=O)[nH]c(=O)n2Cc1ccccc1`: the inhibition was 46.7%. Then `CCOc1ccc(C(=O)Nc2ccc(-c3nc4ccccc4[nH]3)cc2)cc1[N+](=O)[O-]`, with 60.5%; and `COc1ccc(-c2csc(NC(=O)CSc3nc(C)nc4sc(C(=O)O)c(C)c34)n2)cc1`, with 92.4%; and `N#C/C(C(=O)Nc1ccc(Cl)cc1)=C(/S)Nc1ccccc1`, with 83.2%. `NS(=O)(=O)c1ccc(NC(=O)c2ccc(-c3ccccc3)cc2)cc1`: the inhibition was determined as 53.9%. With `N#Cc1nccnc1S(=O)(=O)c1cccs1` the figure was 54.8%; with `COc1cc2c(cc1OC)-c1cc(Nc3ccc(C(=O)O)cc3)nc(=O)n1CC2`, 70.1%; with `O=C(CSc1nc2ccccc2n1CCc1ccccc1)c1ccc(O)c(O)c1`, 59%.

Consider `C=C(C)C(=O)Nc1cccc(C2=NOC3(C2)C[C@@H](C(N)=O)N(C(=O)/C=C/C=C/C)C3)c1` (some centres undefined), for which the inhibition came to 83.3%. On to `Cc1ccc(-c2nn(-c3ccccc3)cc2/C=C/C(=O)O)o1`, for which the inhibition is 36.6%. With `Oc1cccc2cc3cccc(O)c3c(O)c12`, the inhibition came to 54.3%. With `COc1ccc2cc(N=Cc3nc(-c4ccc(C)cc4)oc3O)cnc2c1` the figure was 59.4%. Turning to `COc1ccc(-n2c(O)c(/C=C3\C=Nc4ccccc43)c(=O)[nH]c2=O)cc1`, the inhibition stood at 65.8%.

Take `O=C(O)c1cc(-c2ccco2)nn1-c1ccc(Cl)cc1`: the inhibition is 48.4%. Consider `CCCCc1ccc(/C=C2\C(=O)c3ccccc3C(O)=C2C(=O)OCC)cc1`, for which the inhibition was 50.7%. Regarding `N#Cc1c(Nc2ccccc2Cl)s[nH]c1=O`, the inhibition was 68.6%. `Cc1cc(C)cc(-n2c3nc4ccccc4nc3c3c(=O)n(Cc4ccco4)cnc32)c1`: the inhibition was 44.3%. On to `CC(=O)Nc1ccc(NC(=O)c2cc(-c3ccc(C)c(C)c3O)n[nH]2)cc1`, for which the inhibition is 36.8%.

For `CC(C)c1ccc(/C=C2\SC(=O)N(CC(=O)NC3CCS(=O)(=O)C3)C2=O)cc1` (centres undefined), the inhibition amounted to 53.4%. For `CCN1C(=O)N/C(=C/c2ccc(C)o2)C1=O`, the inhibition is 56%. Turning to `COC(=O)c1ccc(COc2ccc(/C=N/Nc3nc(C)cc(=O)[nH]3)cc2)cc1`, the inhibition is 32.3%. For `COc1cccc(/C=N/Nc2nn3cnnc3c3ccccc23)c1O`, the inhibition came out at 57.9%. Then `O=C(N/N=C/c1ccc([N+](=O)[O-])o1)c1cn2ccc3ccccc3c2n1`, with 55.9%; and `O=C1C=C(c2ccccc2)C(=O)N1Nc1ccccc1`, with 65.1%. `COc1ccc(C(=O)Nc2cccc(/C=C(\CCC(=O)O)c3nc4ccccc4s3)c2)cc1`: the inhibition amounted to 52.4%.

In the case of `COc1cc(N=c2ssnc2Cl)cc(OC)c1OC`, the inhibition was determined as 62%. In the case of `COc1cc(NC(=O)c2cccs2)ccc1NC(=O)c1cc2ccccc2o1`, the inhibition turned out to be 55.1%. For the molecule `CCN(CC)Cc1cc(O)c(CN(CC)CC)cc1O`, the inhibition worked out at 64.7%. Consider `N#C/C(=C/c1ccc(N2CCCCCC2)o1)c1ccc(Cl)cc1`, for which the inhibition was 44.1%.

Consider `NS(=O)(=O)c1ccc(CCNC(=O)/C=C/c2ccc([N+](=O)[O-])cc2)cc1`, for which the inhibition worked out at 44.2%.

`C=C(C)C(=O)Nc1cccc(C2=NOC3(C2)C[C@@H](C(N)=O)N(C(=O)C2(C)CC2)C3)c1` (some centres undefined): the inhibition was 52.1%. As for `NS(=O)(=O)c1ccc(CCNC(=O)CCS(=O)(=O)c2ccc(Br)cc2)cc1`, the inhibition amounted to 61.9%.

As to `CCSc1nnc(-c2sc3nnc(-c4ccccc4)c(-c4ccccc4)c3c2N)o1`, the inhibition is 63%.

`CC(=O)Nc1ccc(C2=NNC(=Nc3cccc(S(=O)(=O)N(C)C)c3)SC2)cc1`: the inhibition was 43.9%. As for `NC(=S)n1[nH]c(-c2ccc([N+](=O)[O-])cc2)c(N=Nc2cccc([N+](=O)[O-])c2)c1=O`, the inhibition is 51.8%. For `NS(=O)(=O)c1ccc(CNC(=O)Cc2cccs2)cc1`, the inhibition came out at 60.4%. As for `C=CCOc1ccc(/C=C2\SC(=S)N(N3CCOCC3)C2=O)cc1`, the inhibition was 71.7%. `COc1cc(N=c2ssnc2Cl)cc(OC)c1`: the inhibition worked out at 69.9%. For the molecule `Cc1ccnc(NC(=S)N2CCN(c3cccc(C(F)(F)F)c3)CC2)c1`, the inhibition came to 85.4%. With `CC(/C=C/c1ccco1)=N\NC(=O)c1cc(C)[nH]n1` the figure was 51.2%. In the case of `COc1ccc(NC(=O)c2cc3ccc4c5ccccc5[nH]c4c3cc2O)cc1`, the inhibition is 62.3%. Take `CC(=O)Nc1ccc(C2=NNC(=Nc3ccc(S(=O)(=O)N4CCOCC4)cc3)SC2)cc1`: the inhibition was found to be 63.2%. In the case of `Cc1cc(C(=O)O)ccc1-c1ccc(/C=C2\SC(=O)N(CC(=O)Nc3ccc4c(c3)OCO4)C2=O)o1`, the inhibition was 87.2%. With `CCC1=NNc2cccc3c(OC)ccc1c23`, the inhibition is 43.5%. `CC(=O)c1ccc(NC(=O)CSc2ccsc2[N+](=O)[O-])cc1`: the inhibition was 47.9%. On to `CCCC(C(=O)NC1CCCC1)N(C(=O)Cn1nnc(-c2ccc(C)o2)n1)C1CCCC1` (centres undefined), for which the inhibition came out at 47.1%. As to `C=CCOC(=O)/C=C/C(=O)NC(N)=O`, the inhibition amounted to 48.1%. Regarding `COc1cc(N2C(=O)C=CC2=O)c(OC)cc1Cl`, the inhibition came to 65.4%. With `CCCCn1c(=O)[nH]c2nc3cc(N)ccc3nc2c1=O` the figure was 48.2%; with `O=C(O)Cc1sc(Nc2ccc(F)cc2)nc1-c1cccs1`, 65%; with `CCN(C(=O)CN1C(=O)S/C(=C\C=C\c2ccccc2)C1=O)C1CCS(=O)(=O)C1` (centres undefined), 44.3%. As to `CCOC(=O)Cn1c2ccc(OC)cc2c2nc3ccccc3nc21`, the inhibition is 52.1%.

`Cc1ccc(/C=C/C(=O)N2CCN(c3ncccn3)CC2)o1`: the inhibition amounted to 50%.

Consider `O=C1c2cccc3c(O)ccc(c23)C(=O)N1Cc1ccco1`, for which the inhibition is 51.9%.

Turning to `O=C(Nc1ccc2oc(-c3cccc4ccccc34)nc2c1)c1ncn[nH]1`, the inhibition is 52%. Then `O=C(O)c1cccc(-n2cccc2/C=C2/NC(=O)N(c3ccc(Cl)cc3)C2=O)c1`, with 94.7%; and `CN1C(=O)C(Cl)(Cl)C(=O)c2ccccc21`, with 92.8%; and `Cc1cc(Cl)ccc1N=c1ssnc1Cl`, with 75.2%. Then `CC(=O)Oc1ccc(N2C(=O)C3C(C2=O)C2(C)C=CC3(C)O2)cc1` (centres undefined), with 66.3%; and `COC(=O)c1cc(NC(=O)c2ccccc2)c(=O)oc1/C=C/Nc1ccc(Oc2ccccc2)cc1`, with 33.4%. For the molecule `COc1ccc(C(=O)NC(=S)Nc2ccc(NC(=O)c3ccco3)cc2)cc1[N+](=O)[O-]`, the inhibition came out at 68.1%.

As for `COc1ccc(CC(=O)Nc2ccc(-c3nnc(-c4ccc(C)cc4)o3)cc2)cc1`, the inhibition came out at 47.7%. On to `Cc1ccc(-c2cc(C(=O)N3CC(C)CC(C)C3)c3ccccc3n2)o1` (centres undefined), for which the inhibition came out at 41.4%. Then `Cc1nc2sc(C(=O)OC(C)C)c(N)c2c(C)c1C`, with 56%.

`CCOc1cc(/C=C(\C#N)C(=O)Nc2cccc(C(=O)O)c2)ccc1OCc1ccc(Br)cc1`: the inhibition worked out at 84%.
